Measurements reported in PubChem BioAssay AID651820 (National Center for Advancing Translational Sciences (NCATS), 2012).
In all, about 340,000 compounds went through this assay and about 12,000 (3.5%) were called active. This list was built around the results that the source calls inconclusive (neither active nor inactive); the mix of calls is not that of the screen. Calls follow the shape of the dose curve; as a rule, active = well fitted inhibition curve with a large enough effect; inconclusive = small, poorly fitted or top-dose-only effect, or another doubt; inactive = no such curve, though single readings can be large or run the other way. No potency is given beside an inconclusive call; the fits are too rough.
Potency is read from the fitted curve at half-maximal effect; tags tell the direction and shape of the fitted curve.

Experiment: qHTS Assay for Inhibitors of Hepatitis C Virus (HCV)
Settings: Huh7.5.1 HCVcc-Cre (HCVcc is cell-culture hepatitis C virus) infection, luciferase reporter, 44 h; series mostly up to 41.8 µM
Outline: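 Antiviral activity was scored by luciferase reporter output from cells infected with HCVcc-Cre (~0.5 moi) in presence of compound, 44 h infection period, cells seeded 1,000/well 4 h prior.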
For `Cc1ccn2c(=O)nc(SCC(=O)NCc3ccc4c(c3)OCO4)nc2c1`, the Potency was inconclusive [inhibitor, single point].
With `COc1nc(Nc2ccc(C(C)=O)cc2)nc(OC)n1` the Potency was “inactive”.
For `CNCCCCOc1ccc(C(C)(C)C)cc1Cl`, the Potency was inconclusive [inhibitor, single point].
With `COc1ccc(CCNC(=O)/C=C/c2ccco2)cc1OC` the Potency was “inactive”.
In the case of `CC(=O)Nc1ccc(NC(=S)NC(=O)/C=C/c2ccc(Cl)cc2)cc1`, the Potency is reported as “inactive”.
In the case of `Cc1ccc(S(=O)(=O)N2CCOC2CNC(=O)C(=O)NCc2ccc3c(c2)OCO3)cc1` (configuration not stated), the Potency is reported as inconclusive [inhibitor, single point].
With `Cc1ccc(S(=O)(=O)Nc2ccc(-c3csc(-c4ccccc4)n3)cc2)cc1` the Potency was active: 10 µM.
With `Cc1ccc(NC(=O)Cn2c(=O)oc3ccccc32)cc1C` the Potency was “inactive”.
In the case of `CC(C)Cn1c(N)c(C(=O)COC(=O)c2ccc3ccccc3n2)c(=O)n(C)c1=O`, the Potency is reported as inconclusive [inhibitor, single point].
With `C(=C\CSc1nnnn1-c1ccccc1)/CSc1nnnn1-c1ccccc1` the Potency was inconclusive [inhibitor, single point].
For `CCOc1ccc(C(=O)CCC(=O)Nc2ncccc2O)cc1`, the Potency was inconclusive [inhibitor, full curve, poor fit].
In the case of `COC(=O)c1[nH]c2ccc(C)cc2c1NC(=O)CCN1CCN(C2CCCCC2)CC1`, the Potency is reported as inconclusive [inhibitor, single point].
For `CCCOc1ccc(Br)cc1/C=N/NC(=O)c1cc(OC)c(OC)c(OC)c1`, the Potency was inconclusive [inhibitor, full curve].
For `COc1ccc(-c2nc(C#N)c(N3CCC(C)CC3)o2)cc1`, the Potency was inconclusive [inhibitor, single point].
In the case of `O=C(N/N=C/c1ccc[nH]1)c1cc(-c2ccc(Cl)cc2)nc2ccccc12`, the Potency is reported as inconclusive [inhibitor, single point].
With `O=C(Nc1ccc(Br)cc1)c1ccccc1CC[N+](=O)[O-]` the Potency was inconclusive [inhibitor, single point].
In the case of `COc1ccc(CNc2oc(Cc3cccc4ccccc34)nc2C#N)cc1`, the Potency is reported as inconclusive [inhibitor, partial curve, poor fit].
In the case of `COc1ccc(CN(C)C(=O)c2oc3ccccc3c2CSC)cc1F`, the Potency is reported as inconclusive [inhibitor, single point].
For `C=CCn1c(SC(C)C(N)=O)nc2sc(CC)cc2c1=O` (configuration not stated), the Potency was “inactive”.
With `COc1ccc(CCC(=O)N2CCN(C(=O)c3ccccc3)CC2)cc1` the Potency was “inactive”.
In the case of `CC(C)Oc1ccc(/C(O)=C2/C(=O)C(=O)N(Cc3cccnc3)C2c2ccco2)cc1` (configuration not stated), the Potency is reported as inconclusive [inhibitor, single point].
For `Cc1cc(C)c[n+](C(C)C(=O)c2ccc(-c3ccccc3)cc2)c1` (configuration not stated), the Potency was “inactive”.
With `Cn1nc(C(=O)NCc2ccc(F)cc2)c2c1-c1ccccc1S(=O)(=O)C2` the Potency was active: 14.1 µM.
With `CN(C1CCCCC1)S(=O)(=O)c1ccc(S(=O)(=O)N2CCCC2)cc1` the Potency was inconclusive [inhibitor, single point].
With `COc1ccc(/C=N\NC(=O)c2ccccc2Br)cc1COc1ccc(F)cc1` the Potency was inconclusive [inhibitor, full curve].
With `O=C(CCNS(=O)(=O)c1cccc2nsnc12)NCc1ccccc1` the Potency was inconclusive [inhibitor, single point].
In the case of `CC(C)(C)c1ccc(C(=O)Nc2ccc(C(=O)N3CCOCC3)cc2)cc1`, the Potency is reported as inconclusive [inhibitor, partial curve].
For `O=C(N/N=C/c1ccccc1[N+](=O)[O-])c1ccc2nc[nH]c2c1`, the Potency was “inactive”.
With `CC(C)CCN1CCN(Cc2nc3c(s2)CCCC3)CC1CCO` (configuration not stated) the Potency was inconclusive [inhibitor, single point].
For `O=C(NCCc1c[nH]c2ccc(Cl)cc12)c1ccc([N+](=O)[O-])cc1`, the Potency was inconclusive [inhibitor, full curve, poor fit].
In the case of `Cc1ccc(C(=O)Nc2ccc(F)cc2)cc1NC1=NC2CS(=O)(=O)CC2S1` (configuration not stated), the Potency is reported as “inactive”.
For `Cc1ccc(C(=O)/C=C/c2ccc(-c3ccc(C)cc3)o2)cc1`, the Potency was “inactive”.
In the case of `CCCn1c2c(c(O)c(C(=O)Nc3nc4ccccc4s3)c1=O)CCCC2`, the Potency is reported as inconclusive [inhibitor, single point].
In the case of `CCc1cccc(NC(=O)c2ccc3c(=O)n4c(nc3c2)CCCCC4)c1`, the Potency is reported as active: 12.6 µM.
For `O=[N+]([O-])c1ccc(COc2ccc(-c3[nH]ncc3-c3ccc(Cl)cc3)c(O)c2)cc1`, the Potency was inconclusive [inhibitor, single point].
For `CCN(CC)CCN(Cc1cc2cc3c(cc2[nH]c1=O)OCCO3)C(=S)NCCCN(C)C`, the Potency was “inactive”.
In the case of `CC(C)c1ccccc1NC(=S)NCC1(N(C)C)CCCCC1`, the Potency is reported as inconclusive [inhibitor, partial curve].
In the case of `CCOC(=O)n1c(=O)n(Cc2ccc(Cl)c(Cl)c2)c2ccccc21`, the Potency is reported as inconclusive [inhibitor, single point].
For `CN(C)S(=O)(=O)c1ccc(N2CCCC2)c(C(=O)NNC(=O)c2ccc(F)cc2)c1`, the Potency was “inactive”.
For `Cc1cccc(NC(=O)c2cccc(NC(=O)c3ccco3)c2)c1`, the Potency was “inactive”.
In the case of `COc1ccc(NC(=O)C(C)(C)Oc2ccc(Cl)cc2)cn1`, the Potency is reported as “inactive”.
In the case of `COc1ccc(CCNC(=O)c2nnn(CC(=O)Nc3ccc(C)cc3C)c2N)cc1OC`, the Potency is reported as inconclusive [inhibitor, full curve].
With `O=[N+]([O-])c1cccnc1S(=O)(=O)c1ccccc1` the Potency was inconclusive [inhibitor, single point].
For `Cc1ccc(C)c(NC(=S)c2ccccn2)c1`, the Potency was “inactive”.
With `O=C1CN(C(=O)COC(=O)[C@@H]2CCCN2S(=O)(=O)c2ccc(Cl)cc2)c2ccccc2N1` the Potency was “inactive”.
For `COc1cc(C2C(C(=O)c3ccc(C)o3)=C(O)C(=O)N2Cc2ccccc2)ccc1O` (configuration not stated), the Potency was inconclusive [inhibitor, single point].
With `CCN(CC)CCCNC(=O)CSc1nc(-c2cccs2)cc(C(F)(F)F)n1` the Potency was inconclusive [inhibitor, single point].
In the case of `CCC1CCc2sc(C(=O)NCC(c3ccc(OC)cc3)N3CCCC3)cc2C1` (configuration not stated), the Potency is reported as active: 10 µM.
For `O=C(N/N=C/c1sc2ccccc2c1O)c1cccc2ccccc12`, the Potency was active: 1.78 µM.
In the case of `COc1ccc(OC)c(C(O)c2coc3ccc(O)c(CN4CCOCC4)c23)c1` (configuration not stated), the Potency is reported as inconclusive [inhibitor, single point].
For `Cc1ccc(OCCCCNC(C)c2ccccc2)c(C)c1` (configuration not stated), the Potency was active: 10 µM.
For `CCOc1ccccc1NC(=S)Nc1ccc(S(N)(=O)=O)cc1`, the Potency was “inactive”.
For `CNc1oc(-c2ccc(F)cc2)nc1S(=O)(=O)c1ccccc1`, the Potency was “inactive”.
For `Cc1cc(NC(=O)C2CCN(C(=O)c3ccco3)CC2)ccc1Br`, the Potency was inconclusive [inhibitor, single point].
In the case of `CC(C)(C)c1ccc(C(=O)NCC2CCCN2S(=O)(=O)c2ccccc2)cc1` (configuration not stated), the Potency is reported as inconclusive [inhibitor, single point].
For `c1ccc2[nH]cnc2c1`, the Potency was inconclusive [inhibitor, single point].
In the case of `COc1cccc(-c2nn(C)c3sc(C(=O)Nc4ccc5c(c4)OCCO5)cc23)c1`, the Potency is reported as active: 3.16 µM.
In the case of `O=C(CCCn1c(=S)[nH]c2cc3c(cc2c1=O)OCO3)N1CCN(c2ccccc2)CC1`, the Potency is reported as inconclusive [inhibitor, single point].
In the case of `COC(=O)c1cc(NC(=O)Cc2ccc(OC)cc2)cc(C(=O)OC)c1`, the Potency is reported as inconclusive [inhibitor, partial curve].
In the case of `O=C(NCC1CCCN(C(=O)c2cccnc2)C1)c1ccc(-c2ccccc2)cc1` (configuration not stated), the Potency is reported as inconclusive [inhibitor, single point].
For `CCOc1ccccc1NC(=O)CCNS(=O)(=O)c1ccc(NC(C)=O)cc1`, the Potency was inconclusive [inhibitor, single point].
With `CCOc1ccc(/C=N/NC(=O)c2[nH]ncc2Br)c(O)c1` the Potency was active: 22.4 µM.
For `Cc1ccsc1CN(C)CC(=O)Nc1cccc(S(=O)(=O)N(C)c2ccccc2)c1`, the Potency was inconclusive [inhibitor, single point].
With `CCc1ccc2c(COC(=O)c3n[nH]c4ccccc34)cc(=O)oc2c1` the Potency was active: 10 µM.
For `CCc1ccc2nc(SCC(=O)Nc3ccccc3N3CCOCC3)c(C#N)cc2c1`, the Potency was “inactive”.
With `Cc1ccc(C)c(NC(=O)C(OC(=O)c2cc[n+]([O-])cc2)c2ccccc2)c1` (configuration not stated) the Potency was inconclusive [inhibitor, full curve].
With `COCC(=O)N(CCc1ccc(OC)c(OC)c1)Cc1cc2cc(C)ccc2nc1Cl` the Potency was inconclusive [inhibitor, single point].
For `COc1ccccc1C(=O)COC(=O)COc1ccc(C#N)cc1`, the Potency was “inactive”.
For `C=C[C@]1(C)C[C@@H](OC(=O)CSCCN(CC)CC)[C@]2(C)C(C)CC[C@]3(CCC(=O)[C@H]32)[C@@H](C)[C@@H]1O` (some centres not stated), the Potency was inconclusive [inhibitor, partial curve].
With `CCOc1ccccc1NC(=O)C1CCCCN1S(=O)(=O)c1ccc(F)cc1` (configuration not stated) the Potency was inconclusive [inhibitor, single point].
For `O=C(O)CCc1ccc(-c2cccs2)n1NC(=O)c1cccs1`, the Potency was “inactive”.
In the case of `O=C(/C=C/c1ccco1)N(Cc1ccc(Cl)cc1)C1CCS(=O)(=O)C1` (configuration not stated), the Potency is reported as active: 1.12 µM.
